assay: soluble on expression in E. coli; label from the status in PepcDB or PDB records

| Sequence | soluble on expression in E. coli |
| --- | --- |
| AHHHHHHGSDLAFELRKAMETGKVVLGSNETIRLAKTGGAKLIIVAKNAPKEIKDDIYYYAKLSDIPVYEFEGTSVELGTLLGKPFVVASLAIVDPGESKILAIAKR | soluble |
| DIVLTQSPASLAVSLGQRATISCRASESVDNYGISFMSWFQQKPGQPPKLLIYAASNQGSGVPARFSGSGSGTDFSLNIHPMEEDDTAMYFCQQSKEVPLTFGAGTKLELKRADAAPTVSIFPPSSEQLTSGGASVVCFLNNFYPKDINVRWKIDGSERQNGVLNSWTDQDSKDSTYSMSSTLTLTKDEYERHNSYTCEATHAASPIVKSFNRNEC | soluble |
| GPDDNHLSIVTLEEAPFVIVEDIDPLTETCVRNTVPCRKFVKINNSTNEGMNVKKCCKGFCIDILKKLSRTVKFTYDLYLVTNGKHGKKVNNVWNGMIGEVVYQRAVMAVGSLTINEERSEVVDFSVPFVETGISVMVSRGTQVTGLSDKKFQRPHDYSPPFRFGTVPNGSTERNIRNNYPYMHQYMTRFNQRGVEDALVSLKTGKLDAFIYDAAVLNYKAGRDEGCKLVTIGSGYIFATTGYGIALQKGSPWKRQIDLALLQFVGDGEMEELETLWLTGICHN | soluble |
| MGASYSSYLAKADQKRGKKQTARETKKKVLAERRKPLNIDHLNEDKLRDKAKELWDWLYQLQTEKYDFAEQIKRKKYEIVTLRNRIDQAQKHSKKAGAKGKVGGRWK | soluble |
| MGHHHHHHSHMMYYYDDGTGVQVYPVEEALLKEYIKRQIEYYFSVENLERDFFLRGKMDEQGFLPISLIAGFQRVQALTTNLNLILEALKDSTEVEIVDEKMRKEIEPEKWPIPGPPPRSVPPTDFSQLIDCPEFVPGQAFCSHTESAPNSPRIGSPLSPKKNSETSILQAMSRGLSTSLPDLDSEPWIEVKKRHQPAPVKLRESVSVPEGSLNQLCSSEEPEQEELDFLFDEEIEQIGRKNTFTDWSDNDSDYEIDDQDLNKILIVTQTPPYVKKHRGGDRTGTHMSRAKITSELAKVINDGLYYYEQDLWMEEDENKHTAIKVIVSGQHLSTDALF | soluble |
| MPAPRYRSRSYRRIYRRTPGGRIVIHYKRRKPGKPKCAICGAELHGVPRGRPVEIRKLPKSQRRPERPYGGYLCPRCLKRLMIQKARNLLEHHHHHH | not soluble |
| MSKVSRESLNEAIAEVLKGSSEKPRKFRETIELQIGLKNYDPQKDKRFSGSIRLKHIPRPNMKVCVFGDQHHLDEAAAGDIPSMSADDLKKLNKQKKLIKKLAKSYDAFIASESLIKQIPRILGPGLNKAGKFPSVVTHGESLQSKSDEIRATVKFQMKKVLCLSVAVGHVGLTQEELVSNISLSINFLVSLLKKNWQNVRSLNIKSTMGKPQRVY | not soluble |
